The other results are listed elsewhere or left out. The energies were worked out here from pooled read counts, against the library average; single values are noisy.

The target in the assay is T1, Pho4 (S. cerevisiae) (UniProt P07270).
T1 sequence: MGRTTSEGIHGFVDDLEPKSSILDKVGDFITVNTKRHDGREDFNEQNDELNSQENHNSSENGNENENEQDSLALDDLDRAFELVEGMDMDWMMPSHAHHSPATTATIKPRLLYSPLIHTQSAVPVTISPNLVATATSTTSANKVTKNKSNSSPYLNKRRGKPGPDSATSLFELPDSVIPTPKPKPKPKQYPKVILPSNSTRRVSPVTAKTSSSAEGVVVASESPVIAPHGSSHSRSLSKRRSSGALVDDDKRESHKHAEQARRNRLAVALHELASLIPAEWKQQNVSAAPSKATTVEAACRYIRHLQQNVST
The assay can be described thus: relative binding free energy (BET-seq); higher = weaker binding. The note with it: reference: library average.
For the sequence GCTTTCACGTGAGGGG, the “relative binding free energy” value was found to be 0.3 kcal/mol.
Next, GGTGCCACGTGCAGGG: -0.22 kcal/mol; GGTATCACGTGTAGGA: 0.19 kcal/mol; CTATGCACGTGGTCGT: -0.12 kcal/mol.
Regarding TGTTACACGTGGCAAT, the “relative binding free energy” value was 0.06 kcal/mol.
Next, TTTTGCACGTGCATAT: -0.09 kcal/mol; GGAGCCACGTGTGGAG: 0 kcal/mol.
Next, CTGTACACGTGAAGGG: 0.32 kcal/mol; ACGGTCACGTGCGGGT: 0.03 kcal/mol; GAGGGCACGTGGTAGA: -0.11 kcal/mol.
The value for GTAGTCACGTGGTAAA was 0.07 kcal/mol; that for AGCAGCACGTGGTGTG was -0.21 kcal/mol.
Turning to TCTTACACGTGGGGGC, the “relative binding free energy” value stood at 0.08 kcal/mol.
Next, ATTGTCACGTGATTGA: 0.2 kcal/mol; TTAAACACGTGATAGT: 0.09 kcal/mol; GTGAGCACGTGTAGTA: 0.01 kcal/mol.
The value for TTTGTCACGTGTATGG was 0.22 kcal/mol.
The value for TAATGCACGTGCGGAT was 0.03 kcal/mol; that for TGTCGCACGTGTTTCA was -0.03 kcal/mol.
Regarding GTGGCCACGTGGCAGT, the “relative binding free energy” value is -0.1 kcal/mol.
Next, TTCTGCACGTGATGCG: 0.14 kcal/mol; GGGTGCACGTGACGTG: 0.1 kcal/mol.
Next, TGTAACACGTGGTATT: -0.01 kcal/mol; GTTGACACGTGAAGAG: 0.33 kcal/mol.
The value for ACGGACACGTGCGGGG was 0.06 kcal/mol.
CTTTTCACGTGTCGTG: the “relative binding free energy” value stood at 0.1 kcal/mol.
For the sequence TCAGTCACGTGGCTGT, the “relative binding free energy” value was 0.07 kcal/mol.
The value for GTGGCCACGTGGAATG was 0.13 kcal/mol; that for TCATACACGTGTGATA was 0.17 kcal/mol.
Next, TGTACCACGTGATGGG: -0.07 kcal/mol.
Consider ATAGGCACGTGAAGGA, for which the “relative binding free energy” value is 0.12 kcal/mol.
For TGGTACACGTGGTTTA, the “relative binding free energy” value worked out at 0.08 kcal/mol.
Next, TGTTGCACGTGAGTGT: 0.2 kcal/mol; GGGTGCACGTGGCAGC: -0.09 kcal/mol; GTATGCACGTGATAGA: 0.02 kcal/mol.
Next, ATGTGCACGTGGAATG: -0.01 kcal/mol; GTATACACGTGCTAGG: 0.02 kcal/mol; ACGGTCACGTGAGGTT: 0.29 kcal/mol.
The value for AATTTCACGTGAGAGG was 0.47 kcal/mol; that for GTCTTCACGTGGAAGG was 0.39 kcal/mol; that for GGTGACACGTGAGTAG was 0.22 kcal/mol.
As to AATTACACGTGCGGTT, the “relative binding free energy” value came out at 0.05 kcal/mol.
TCGGACACGTGTGCGT: the “relative binding free energy” value amounted to 0.02 kcal/mol.
The value for AGAGGCACGTGACGTT was -0.06 kcal/mol; that for GTCGGCACGTGGGGAT was -0.14 kcal/mol; that for TTATGCACGTGGAGGT was 0.09 kcal/mol.
Next, AATCGCACGTGTTGTT: -0.21 kcal/mol; TTAATCACGTGATAAG: 0.31 kcal/mol.
The value for AAGGTCACGTGGCCGT was 0.02 kcal/mol; that for AAGCGCACGTGTAGTG was 0 kcal/mol.
Regarding GGATGCACGTGGCGTT, the “relative binding free energy” value was determined as 0.03 kcal/mol.
The value for TCTTTCACGTGGAGTT was 0.24 kcal/mol; that for CGTTTCACGTGGATGG was 0.18 kcal/mol; that for GTTGGCACGTGAATCA was 0.14 kcal/mol.
Next, GTTTTCACGTGGAAAT: 0.45 kcal/mol; TAGTTCACGTGGACTG: 0.25 kcal/mol; TTCCTCACGTGTGGAG: 0.35 kcal/mol.
The value for ATGTTCACGTGTGCTG was 0.25 kcal/mol; that for AACATCACGTGTTTTT was 0.21 kcal/mol; that for ATTATCACGTGCGAGG was 0.2 kcal/mol.
Consider TGGCACACGTGGTGTG, for which the “relative binding free energy” value is -0.07 kcal/mol.
Next, GGGCACACGTGTGAGT: 0.19 kcal/mol; ATTAGCACGTGGGAGG: -0.16 kcal/mol; GGCTACACGTGTAATG: 0.27 kcal/mol.
The value for GGGGTCACGTGTGACA was 0.11 kcal/mol.
Take CGTTGCACGTGGCTGG: the “relative binding free energy” value was -0.1 kcal/mol.
The value for TAAATCACGTGATATT was 0.2 kcal/mol; that for GGGCACACGTGTTTTG was 0.19 kcal/mol.
Next, GGAGTCACGTGCGCGG: 0 kcal/mol; ATAGGCACGTGCAGGT: -0.22 kcal/mol; GTTGACACGTGAAGCT: 0.25 kcal/mol.
The value for TGGTTCACGTGGGTGT was 0.22 kcal/mol; that for GCCTACACGTGGGTGG was 0.09 kcal/mol.
As for TGTTTCACGTGACAAT, the “relative binding free energy” value was 0.25 kcal/mol.
Next, CACGTCACGTGTAGGT: 0.13 kcal/mol; TTTGGCACGTGGGCTC: -0.25 kcal/mol; TATACCACGTGGGGGG: -0.41 kcal/mol.
Next, GGATTCACGTGGAGCG: 0.4 kcal/mol; GTTGTCACGTGGTCTA: 0.11 kcal/mol; CAGTGCACGTGAGGGT: 0.19 kcal/mol.
Regarding GGTCTCACGTGATGGT, the “relative binding free energy” value stood at 0.37 kcal/mol.
Next, CAATGCACGTGGGTGT: -0.05 kcal/mol; GTTATCACGTGTATGG: 0.12 kcal/mol.
The value for TTAGTCACGTGATTAA was 0.1 kcal/mol; that for AAGTACACGTGGTGCG was -0.13 kcal/mol; that for AAAGGCACGTGAAGGT was 0.12 kcal/mol.
The value for TTGGGCACGTGGCTGC was -0.18 kcal/mol; that for TTAGACACGTGGTCAT was -0.1 kcal/mol; that for TGTGACACGTGTGCAG was 0.04 kcal/mol.
Take CGGGTCACGTGTACGG: the “relative binding free energy” value amounted to 0.16 kcal/mol.
The value for AGGGACACGTGGTAGC was -0.02 kcal/mol.
The value for TGGCTCACGTGAAATG was 0.35 kcal/mol; that for GTGGCCACGTGGGGGG was -0.08 kcal/mol; that for TGCGTCACGTGATTTG was 0.24 kcal/mol.
The value for GGAAGCACGTGAGGAC was 0.27 kcal/mol.
For ATTGTCACGTGGACGG, the “relative binding free energy” value is 0.1 kcal/mol.
The value for TCGTACACGTGTTTGG was 0.07 kcal/mol.
Next, TAAGGCACGTGTATGA: -0.17 kcal/mol.
The value for GTGAGCACGTGTAGGT was -0.05 kcal/mol; that for ATTTGCACGTGGCGTG was 0 kcal/mol; that for AGATTCACGTGGTCAT was 0.13 kcal/mol.
Consider GAAGTCACGTGTTAGG, for which the “relative binding free energy” value amounted to 0.26 kcal/mol.
The value for TTATTCACGTGGATGT was 0.32 kcal/mol; that for GTGTTCACGTGTGTTG was 0.33 kcal/mol.
Next, TATTACACGTGATTAT: 0.13 kcal/mol; CGTGGCACGTGTGGCT: -0.02 kcal/mol.
TTGGGCACGTGCGTCG: the “relative binding free energy” value was -0.16 kcal/mol.
Next, ATAATCACGTGCGGGG: 0.1 kcal/mol; TTGTGCACGTGTACGA: 0.1 kcal/mol; TTAGGCACGTGGTATC: -0.2 kcal/mol.
The value for AGGAGCACGTGTCAGG was -0.07 kcal/mol.
As for TTCGGCACGTGGGGAG, the “relative binding free energy” value was -0.25 kcal/mol.
For the sequence GAATTCACGTGAGGGG, the “relative binding free energy” value stood at 0.43 kcal/mol.
The value for GAAATCACGTGTTGGG was 0.21 kcal/mol.
Next, TGTGGCACGTGCAATG: -0.21 kcal/mol.

Values taken from the BET-seq Pho4 binding data (Le et al. 2018).
